B1: CPEB3 Ribozyme (parent)
chain: UAACAGGGGGCCACAGCAGAAGCGUUCACGUCGCAGCCCCUGUCAGAUUCUGGUGAAUCUGCGAAUUCUGCUGUAUAUCUC

The source gives no read counts; variants with many changes may rest on few reads.

This series covers variants of B1. As to the kind of experiment: self-cleavage, relative activity (ratio to wild type); higher = more cleavage; in vitro, sequencing. In a few lines:
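For each CPEB3 ribozyme variant, relative activity is its cleaved/total read fraction divided by the unmutated ribozyme's. Barcoded error-prone PCR libraries were transcribed by T7 RNA polymerase (5 hours, 37°C) and held in DNase I for 15 min before an EDTA stop, with cleavage occurring throughout. Template-switching reverse transcription and Illumina sequencing were used to read the RNAs. A 5-read minimum applied, and results are the mean of three batches.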
For G7U G8U U26A, the self-cleavage is 0.07.

G7A U25C U31C A35U: the self-cleavage worked out at 0.06.

As for G7C C44U A47U C59U C62U U66C U78C, the self-cleavage was 0.04.

In the case of G7A G52A U60C, the self-cleavage amounted to 0.07.

In the case of G7C A18G A56U U66C U69C, the self-cleavage is 0.13.

Regarding G7U A21U U41A U43C, the self-cleavage is 0.16.

As to G7U A13G C17U U25A U26C A45G U78C, the self-cleavage worked out at 0.07.

Regarding G7U A18U A56G U60G, the self-cleavage is 0.16.

For the variant G7C A13G U60C, the self-cleavage is 0.21.

Take G7A U31C A35G A56G: the self-cleavage was found to be 0.18.

As to G7U A56G U74A, the self-cleavage stood at 0.34.

Regarding G7A U26C U31C U74A A77U, the self-cleavage worked out at 0.05.

As for G7C A13U C40U A47G U78C, the self-cleavage worked out at 0.26.

Take G7C G63C A65G U80C: the self-cleavage is 0.12.

G7C A15U A65G A77G: the self-cleavage was found to be 0.16.

Regarding G7U G16U A64G, the self-cleavage turned out to be 0.06.

With G7A C44U U74C, the self-cleavage came out at 0.29.

For the variant G7A C38A G55U U60C, the self-cleavage amounted to 0.23.

On to G7A G8C A18U C40G A57G U58C A64G, for which the self-cleavage is 0.06.

Consider G7C C39A U41A A56G U60C U78C, for which the self-cleavage was 0.01.

For the variant G7U A28G U31A C39G U67A U72C, the self-cleavage is 0.04.

Consider G7U G9C U25C U41C U80C, for which the self-cleavage is 0.09.

For the variant G7U A15U U31C U54C G73A, the self-cleavage was 0.05.

As for G7U G9U U76C, the self-cleavage was 0.06.

With G7C U31A U41C U43C A64C, the self-cleavage is 0.05.

In the case of G7U A18G A21G A45U U54C U78C, the self-cleavage was found to be 0.19.

Turning to G7A U25C C40U U41A A77G, the self-cleavage was 0.04.

As for G7C A13U A35C U80C, the self-cleavage was found to be 0.35.

Consider G7A G8A A20U U26A, for which the self-cleavage turned out to be 0.35.

As for G7U A15G A21G U26C G52C U60C, the self-cleavage was 0.06.

For the variant G7U A35U G55U U76A A77G, the self-cleavage stood at 0.09.

For G7A G9A A45U A56G A64G A75G, the self-cleavage stood at 0.19.

For the variant G7U A35G A56U U72A U76C U80A, the self-cleavage was determined as 0.05.

On to G7U A20G A28C U66A, for which the self-cleavage is 0.05.

In the case of G7U A15G A45C U51C G52C A56G, the self-cleavage amounted to 0.06.

Turning to G7U A15U A28U A35U U51G, the self-cleavage came out at 0.04.

In the case of G7U A13G C71U, the self-cleavage was 0.27.

Take G7A U25C U60C A64G U66G U80C: the self-cleavage was 0.06.

For G7U G9A A57U G73C, the self-cleavage amounted to 0.08.

As to G7U A45U U72C G73A, the self-cleavage stood at 0.09.

Regarding G7U A35G U41C A56G U80C, the self-cleavage was determined as 0.06.

Consider G7A G10A U31C, for which the self-cleavage amounted to 0.16.

In the case of G7C A21G U54C U80A, the self-cleavage stood at 0.09.

In the case of G7C C14U G33C C38A, the self-cleavage was found to be 0.05.

G7A G24A U58A A77G: the self-cleavage came out at 0.08.

On to G7A C12U G19U C23U A47G U54C, for which the self-cleavage was 0.04.

Regarding G7A U26A G33C U49A U66A U78C, the self-cleavage was determined as 0.04.

For G7A G9A A13U A18G C79U, the self-cleavage stood at 0.06.

G7A U25C U76C: the self-cleavage is 0.28.

Take G7C G19U A56G U72C: the self-cleavage stood at 0.36.

In the case of G7A U26C G70U, the self-cleavage was 0.21.

In the case of G7U A20U A56G, the self-cleavage came to 0.08.

Regarding G7A G16A U31C U41C U78C, the self-cleavage came to 0.06.

In the case of G7A U54A A56G U67C, the self-cleavage stood at 0.11.

Consider G7A U26C A35U U58C U76A, for which the self-cleavage was 0.07.

Regarding G7C A18U U41C U51C, the self-cleavage was determined as 0.09.

As to G7U A15U U43A U72C U76A, the self-cleavage was 0.06.

As for G7A U25C U41C, the self-cleavage amounted to 0.32.

Take G7U A13G A28G C68U: the self-cleavage is 0.06.

Turning to G7U A15U A20C, the self-cleavage worked out at 0.19.

Regarding G7U C11U U67C A75G, the self-cleavage amounted to 0.05.

In the case of G7C A20G U58C, the self-cleavage is 0.29.

Consider G7A G10C A21G U26C U58C, for which the self-cleavage amounted to 0.05.

For G7U A47G U58G A64U, the self-cleavage turned out to be 0.3.

As to G7U G16C A18U C29G U74A U80C, the self-cleavage worked out at 0.31.

With G7C U25C U26C C71U, the self-cleavage turned out to be 0.25.

As for G7C A20G A35G U48C, the self-cleavage turned out to be 0.31.

Take G7A U31C U48A U54A: the self-cleavage worked out at 0.21.

For the variant G7A C14U U49C C79A, the self-cleavage turned out to be 0.3.

With G7A G24A A64G U76C, the self-cleavage is 0.17.

In the case of G7C C27U A28G A35G A47U, the self-cleavage turned out to be 0.27.

As for G7U A13G U51A C68U, the self-cleavage turned out to be 0.07.

For the variant G7U A56U C81A, the self-cleavage came to 0.27.

G7U C23G A28G U41C: the self-cleavage worked out at 0.21.

As to G7U A28C A45U A64G U78C, the self-cleavage was found to be 0.08.

Take G7U A20G U72C U74C: the self-cleavage is 0.07.

With G7C A13G A28G U31C A56G U60C U69C, the self-cleavage amounted to 0.09.

Take G7U A15C A18G U43C: the self-cleavage came to 0.03.

Turning to G7U A35G C44U A47G, the self-cleavage was 0.21.

On to G7C A13G U26C A35U U54C A64G U80A, for which the self-cleavage was 0.03.

With G7U A56G U78C, the self-cleavage turned out to be 0.16.

Regarding G7A C23U U41A A75C, the self-cleavage came out at 0.17.

In the case of G7C G8C U43C, the self-cleavage was determined as 0.25.

For G7A G19U U69C, the self-cleavage was 0.05.

For the origin of these results see the RNAGym collection of RNA variant scans (doi:10.1093/nar/gkz1192).
